Assay results as given in the supplement of paper PMC8813932.
Structures can show the parent of a compound that is named as a salt. ± gives the standard deviation of the averaged measurements. The list shows a part of the results. Repeats are few or missing, and single values can be far off.

Tests used:
Test in all cases: log2 surviving fraction relative to plate median (drug vs vehicle, or drug+dl922-947 vs dl922-947 alone); ovarian cancer lines: OVCAR4 is platinum-sensitive while Ov4Cis resists cisplatin and Ov4Carbo carboplatin; higher = more cell survival
Conditions in all cases: compound concentration: 10 uM, 192 h
[1] = system: OVCAR4
[2] = system: Ov4Carbo
[3] = system: Ov4Cis
[4] = dl922-947 oncolytic adenovirus co-treatment: MOI 10
[5] = dl922-947 oncolytic adenovirus co-treatment: none

Row | Structure (SMILES) | log2 surviving fraction [1, 4] | log2 surviving fraction [1, 5] | log2 surviving fraction [2, 4] | log2 surviving fraction [2, 5] | log2 surviving fraction [3, 4] | log2 surviving fraction [3, 5]
1 | CC[C@H]1OC(=O)[C@H](C)[C@@H](O[C@H]2C[C@@](C)(OC)[C@@H](O)[C@H](C)O2)[C@H](C)[C@@H](O[C@@H]2O[C@H](C)C[C@H](N(C)C)[C@H]2O)[C@](C)(O)C[C@@H](C)C(=O)[C@H](C)[C@@H](O)[C@]1(C)O [Erythromycin (E-Mycin)] | 0.0414 ± 1.1 | -0.0157 ± 0.68 | 0.16 | -1.8 | 0.273 | -0.0206
2 | CCCOc1ccc(C(=O)OCCN(CC)CC)cc1N [Proparacaine HCl] | 0.681 ± 0.19 | 0.479 ± 0.27 | 0.832 | 0.689 | -0.595 | 0.00386
3 | CC(N)C12CC3CC(CC(C3)C1)C2 (configuration not stated) [Rimantadine (Flumadine)] | -0.307 ± 0.78 | 0.0108 ± 0.11 | 0.623 | -0.524 | -0.142 | -0.255
4 | CCOC(=O)O[C@]1(C(=O)OCCl)CC[C@H]2[C@@H]3CCC4=CC(=O)C=C[C@]4(C)[C@H]3[C@@H](O)C[C@@]21C [Loteprednol etabonate] | 1.66 ± 1.3 | -0.824 ± 1.9 | 1.27 | -0.345 | 1.27 | -2.57
5 | O=c1oc2c(O)c(O)cc3c(=O)oc4c(O)c(O)cc1c4c23 [Ellagic acid] | -0.247 ± 0.15 | 0.222 ± 0.053 | 0.418 | -0.542 | 0.272 | -0.37
6 | CC(CN(C)C)CN1c2ccccc2CCc2ccccc21 (configuration not stated) [Trimipramine Maleate] | -0.985 ± 0.91 | -1.01 ± 0.53 | -1.13 | -1.38 | -0.858 | -1.32
7 | NCCNCCNCCNCCN [Tetraethylenepentamine 5HCl] | -0.995 ± 0.14 | -1.29 ± 1.2 | -1.1 | -3.61 | 0.272 | -0.145
8 | N[C@@H]1CN(c2c(F)cc3c(=O)c(C(=O)O)cn([C@@H]4C[C@@H]4F)c3c2Cl)CC12CC2 [Sitafloxacin hydrate] | -0.0901 ± 0.053 | -0.0268 ± 0.13 | -0.617 | -0.0717 | -0.384 | -0.772
9 | COc1cc2c(cc1OC)CC(=O)N(CCCN(C)C[C@H]1Cc3cc(OC)c(OC)cc31)CC2 [Ivabradine HCl (Procoralan)] | -0.186 ± 0.72 | 0.0385 ± 0.54 | -0.601 | -1.03 | 0.93 | 0.397
10 | CCCCCCCCCCCCCCCC[n+]1ccccc1 [Cetylpyridinium Chloride] | -9.64 ± 0.63 | -11.2 ± 7 | -7.5 | -10.9 | -8.9 | -15
11 | Cc1ccc(S(=O)(=O)NC(=O)NN2CCCCCC2)cc1 [Tolazamide] | 0.479 ± 0.15 | 0.325 ± 0.63 | 0.298 | 0.112 | 0.0459 | 0.305
12 | CC[C@@H]1C(=O)OC[C@@H]1Cc1cncn1C [Pilocarpine HCl] | 0.804 ± 0.15 | 1.09 ± 0.33 | 0.943 | 1.22 | 0.998 | 0.853
13 | CN(C)c1cc(NC(=O)CNC(C)(C)C)c(O)c2c1C[C@H]1C[C@H]3[C@H](N(C)C)C(O)=C(C(N)=O)C(=O)[C@@]3(O)C(O)=C1C2=O [Tigecycline] | -0.014 ± 0.31 | -0.125 ± 0.47 | 1.65 | 0.376 | -0.325 | -0.249
14 | CNNCc1ccc(C(=O)NC(C)C)cc1 [Procarbazine HCl (Matulane)] | -0.725 ± 0.047 | -0.233 ± 0.21 | 1.25 | 0.367 | 0.0385 | -1.16
15 | O.O.O.O.O=C([O-])CC(O)(CC(=O)[O-])C(=O)[O-].[Li+].[Li+].[Li+] [Lithium Citrate] | 0.342 ± 0.14 | 0.395 ± 1 | -0.193 | -0.034 | -0.0339 | 0.817
16 | CCOC(=O)[C@H](CCc1ccccc1)N[C@H]1CCc2ccccc2N(CC(=O)O)C1=O [Benazepril hydrochloride] | 0.862 ± 0.21 | 0.417 ± 0.12 | 0.547 | 1.51 | 0.69 | 0.702
17 | CN(Cc1cc(Br)cc(Br)c1N)C1CCCCC1 [Bromhexine HCl] | 0.462 ± 0.012 | -0.0511 ± 0.52 | -1.12 | 0.367 | 1.43 | 0.173
18 | CC(=O)Oc1cc(C(F)(F)F)ccc1C(=O)O [Triflusal] | -0.456 ± 0.33 | 0.281 ± 0.27 | -0.327 | -0.455 | -0.12 | -0.151
19 | CNCC[C@@H](Oc1ccccc1C)c1ccccc1 [Atomoxetine HCl] | -1.25 ± 0.94 | -0.191 ± 0.65 | -0.934 | -0.985 | -0.457 | -0.108
20 | CCCN1CCCC[C@H]1C(=O)Nc1c(C)cccc1C [Ropivacaine HCl] | -0.905 ± 0.27 | -0.487 ± 0.64 | -1.4 | -0.161 | -0.458 | -1.98
21 | Cc1noc(NS(=O)(=O)c2ccc(N)cc2)c1C [Sulfisoxazole] | -0.923 ± 1.5 | 0.309 ± 0.47 | -0.00608 | -0.983 | 1.05 | 1.09
22 | O=C(O)Cc1ccccc1Nc1c(Cl)cccc1Cl [Diclofenac Potassium] | 1.35 ± 0.021 | 1.29 ± 0.76 | 2.1 | 1.35 | 0.747 | 0.0698
23 | CC(=O)[C@H]1CC[C@H]2[C@@H]3C=CC4=CC(=O)CC[C@@]4(C)[C@@H]3CC[C@]12C [Dydrogesterone] | 0.306 ± 0.73 | 0.249 ± 0.0027 | 2.03 | 0.0978 | 0.623 | -0.00157
24 | CO[C@@]1(NC(=O)C(C(=O)O)c2ccc(O)cc2)C(=O)N2C(C(=O)O)=C(CSc3nnnn3C)CO[C@@H]21 (some centres not stated) [Moxalactam Disodium] | 0.311 ± 0.0043 | 0.285 ± 0.45 | 0.798 | 0.0398 | 0.66 | 0.226

Row | Structure (SMILES) | log2 surviving fraction [1, 4] | log2 surviving fraction [1, 5] | log2 surviving fraction [2, 4] | log2 surviving fraction [2, 5] | log2 surviving fraction [3, 4] | log2 surviving fraction [3, 5]
25 | O=C([O-])c1ccccc1O.[Na+] [Sodium salicylate] | 0.122 ± 0.073 | 0.0878 ± 0.27 | -0.291 | -0.24 | -0.0217 | 0.151
26 | N[C@H](C(=O)O)[C@H](O)c1ccc(O)c(O)c1 [Droxidopa (L-DOPS)] | 0.0483 ± 0.54 | 0.926 ± 0.83 | -0.0855 | 1.08 | -0.285 | -1.71
27 | O=c1cc[nH]c(=O)[nH]1 [Uracil] | 0.241 ± 0.45 | 0.0209 ± 0.017 | 1.53 | 0.59 | 0.609 | 0.0918
28 | N#CC1(c2ccc(NC(=O)c3cccnc3NCc3ccncc3)cc2)CCCC1 [Apatinib (YN968D1)] | -2.15 ± 0.68 | -1.26 ± 0.77 | -1.88 | -0.585 | -0.942 | -2.91
29 | O=C(NC(Cc1cc(=O)[nH]c2ccccc12)C(=O)O)c1ccc(Cl)cc1 (configuration not stated) [Rebamipide] | -0.798 ± 0.062 | -0.334 ± 0.18 | 0.406 | -0.477 | -0.402 | -0.206
30 | N=C(N)NCCN1CCCCCCC1 [Guanethidine Sulfate] | 0.117 ± 0.18 | 0.565 ± 1 | 0.57 | 0.2 | 0.174 | 0.325
31 | CCCCOc1ccc(C(=O)CCN2CCCCC2)cc1 [Dyclonine HCl] | -0.579 ± 0.59 | -0.0645 ± 1.3 | -0.183 | -0.449 | -0.743 | -0.253
32 | CCCC(=O)O[C@]1(C(=O)COC(C)=O)CC[C@H]2[C@@H]3C[C@H](F)C4=CC(=O)C=C[C@]4(C)[C@@]3(F)[C@@H](O)C[C@@]21C [Difluprednate] | 1.16 ± 0.13 | -0.0702 ± 1.3 | 1.2 | 0.164 | 0.81 | -1.06
33 | C[C@]12CC[C@@H]3c4ccc(O)cc4CC[C@H]3[C@@H]1C[C@@H](O)[C@@H]2O [Estriol] | 0.815 ± 0.75 | 0.132 ± 0.47 | 0.534 | 0.9 | 0.415 | 0.402
34 | Cl.N=C(N)NCCC[C@H](N)C(=O)O [L-Arginine HCl] | -0.0188 ± 0.085 | 0.203 ± 0.29 | 1.34 | 0.127 | 0.301 | 0.581
35 | O=C(O)/C=C/c1ccc(Cn2ccnc2)cc1 [Ozagrel] | 0.493 ± 0.17 | 0.309 ± 0.12 | -0.195 | -0.383 | 0.776 | 0.596
36 | CN1CCN(C2=Nc3ccccc3Oc3ccc(Cl)cc32)CC1 [Loxapine Succinate] | -1.28 ± 0.61 | -0.439 ± 0.52 | -0.167 | -1.14 | -0.515 | -1.52
37 | NCC[C@H](O)C(=O)N[C@@H]1C[C@H](N)[C@@H](O[C@H]2O[C@H](CN)[C@@H](O)[C@H](O)[C@H]2O)[C@H](O)[C@H]1O[C@H]1O[C@H](CO)[C@@H](O)[C@H](N)[C@H]1O [Amikacin hydrate] | 0.463 ± 0.82 | 0.381 ± 0.41 | 1.19 | 0.231 | 0.457 | -0.529
38 | C[N+]1(C)[C@@H]2C[C@@H](OC(=O)C(O)(c3cccs3)c3cccs3)C[C@H]1[C@@H]1O[C@@H]12 [Tiotropium Bromide hydrate] | -0.174 ± 0.25 | 0.331 ± 0.62 | 1.14 | 0.0226 | -0.377 | 0.612
39 | C[C@]12CC[C@H]3[C@@H](CC[C@@]45O[C@@H]4C(O)=C(C#N)C[C@]35C)[C@@H]1CC[C@@H]2O [Trilostane] | 0.771 ± 0.74 | 0.0911 ± 0.17 | 0.404 | -0.632 | 0.18 | 0.0143
40 | Cc1cc(NC(=O)C2=C(O)c3ccccc3S(=O)(=O)N2C)no1 [Isoxicam] | 0.447 ± 0.15 | -0.357 ± 0.16 | -0.016 | -0.13 | -0.0919 | 0.0909
41 | NC(=O)c1cccnc1 [Nicotinamide (Niacinamide)] | 0.379 ± 1.6 | -0.0898 ± 0.56 | 1.2 | 0.252 | 0.661 | 0.62
42 | Cc1cccc(Cc2c[nH]cn2)c1C [Detomidine HCl] | 0.113 ± 0.12 | 0.361 ± 0.12 | -1.04 | 0.0121 | -0.0388 | 0.141
43 | CCOC(=O)C1=C[C@@H](OC(CC)CC)[C@H](NC(C)=O)[C@@H](N)C1 [Oseltamivir phosphate (Tamiflu)] | -0.16 ± 0.12 | -0.0242 ± 0.61 | -0.103 | -0.543 | 0.24 | 0.515
44 | C[C@@H](O)[C@H]1C(=O)N2C(C(=O)OCOC(=O)C(C)(C)C)=C(SC3CN(C4=NCCS4)C3)[C@H](C)[C@H]12 [Tebipenem pivoxil (L-084)] | 0.142 ± 1.1 | -0.276 ± 0.31 | 0.714 | 0.169 | -0.375 | -0.57
45 | O=C1Cc2cc(CCN3CCN(c4nsc5ccccc45)CC3)c(Cl)cc2N1 [Ziprasidone hydrochloride] | 0.542 ± 0.36 | 0.296 ± 0.3 | 0.185 | 1.01 | -0.263 | 0.162
46 | CN1C(=O)COc2c(C(=O)NC3CN4CCC3CC4)cc(Cl)cc21 (configuration not stated) | 0.531 ± 0.89 | 0.466 ± 1.1 | -0.00686 | -0.611 | -0.105 | 0.217
47 | NC(=O)C(c1ccccc1)(c1ccccc1)[C@@H]1CCN(CCc2ccc3c(c2)CCO3)C1 [Darifenacin HBr] | -0.672 ± 0.43 | -1.04 ± 0.065 | -0.0517 | -0.572 | -1.71 | -0.295
